Reference: PubChem BioAssay (Tox21)
The shares of active, inactive and inconclusive entries below differ from those in the screen. For part of these data: A potency beside an inconclusive call is a rough fit, not a confirmed value. Active and inactive are the calls of the source. Unless noted, calls follow the shape of the dose curve; as a rule, active = well fitted curve in the direction sought with a large enough effect in the repeat runs; inconclusive = weak or mixed curves; inactive = no such curve, though single readings can be large; an effect the other way counts as inactive or inconclusive.

Experiments:
[1] = qHTS assay to identify small molecule agonists of H2AX (AID 1224845; active = well fitted activation curve with a large enough effect in the signal ratio in the repeat runs, not every such curve was filed as active; inconclusive = weak or mixed curves; the % refers to the signal ratio; also: potency is read from the fitted curve at half-maximal effect); conditions: CHO-K1 phospho-H2AX Ser139 HTRF, 3 h; activation (H2AX phosphorylation): at 154 µM (top of the series) unless noted
In short: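 Phospho-H2AX Ser139 measured by HTRF (ex 320 nm; em 665 and 620 nm) after 24 hr antibody incubation. Compounds, 15 concentrations, 0.76% DMSO, were applied to CHO-K1 cells for 3hr at 37C before lysis.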

[2] = qHTS assay to identify small molecule agonists of the hypoxia (HIF-1) signaling pathway (AID 1224846; active = well fitted activation curve with a large enough effect in the signal ratio in the repeat runs, not every such curve was filed as active; inconclusive = weak or mixed curves; the % refers to the signal ratio; also: potency is read from the fitted curve at half-maximal effect); conditions: HRE-bla ME-180 cells, beta-lactamase ratio, 17 h; activation: at 76.8 µM (top of the series) unless noted
In short: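 Compounds added to ME-180 cells carrying hypoxia-response-element beta-lactamase reporter (0.5% dialyzed FBS, 5 h preplating), 17 h at 37C; agonist activity detected by CCF4-AM B/G FRET read-out.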

[3] = qHTS assay to identify small molecule agonists of H2AX - cell viability counter screen (AID 1224847; calls by dose curve; also: nearly all actives have a fitted effect of over 30% in size; also: potency is read from the fitted curve at half-maximal effect)
In short: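 Quantitative HTS viability measurement: CHO-K1 wild-type cells in serum (10% FBS) medium, short 3 hr drug exposure at 37C with 0.76% DMSO, CellTiter-Glo luminescent detection.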

[4] = qHTS RealTime-Glo MT Cell Viability Assay in HepG2 cells - 24 hour (AID 1224867); also: potency is read from the fitted curve at half-maximal effect; nearly all actives have a fitted effect of over 50% in size
In short: (§1)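 Viability was tracked continuously by NanoLuc luminescence from prosubstrate reduced by living HepG2 cells, at successive time points over 40 h of compound exposure. Cells with reagent were preincubated 5 h at 37 °C before compound addition.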

[5] = qHTS RealTime-Glo MT Cell Viability Assay in HEK293 cells - 32 hour (AID 1224868); also: potency is read from the fitted curve at half-maximal effect; nearly all actives have a fitted effect of over 50% in size
In short: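 Viability tracked continuously by luminescence as live cells reduce a prosubstrate for NanoLuc; HEK293 cells preincubated 5 h, compound-treated at 37 C, and read at 0, 8, 16, 24, 32 and 40 h.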

[6] = A CellTox Green Cytotoxicity Assay to monitor cytotoxicity in HEK293 cells - 40 hour (AID 1224871); also: potency is read from the fitted curve at half-maximal effect; nearly all actives have a fitted effect of over 45% in size
In short: (§2)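 Fluorescence from a DNA-binding dye excluded by viable cells was measured repeatedly in the same HEK293 wells (600 cells/well) during continuous compound exposure at 37 C. Each assay gives one read point: 0, 8, 16, 24, 32 or 40 h.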

[7] = A CellTox Green Cytotoxicity Assay to monitor cytotoxicity in HepG2 cells - 16 hour (AID 1224876); also: potency is read from the fitted curve at half-maximal effect; nearly all actives have a fitted effect of over 45% in size
In short: (§3)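 Real-time cytotoxicity: fluorescence of a cell-impermeant cyanine dye binding DNA of dead HepG2 cells, measured repeatedly (0–40 h) during compound exposure at 37 C. Cells seeded 600/well with reagent, dosed after 5 h.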

[8] = qHTS RealTime-Glo MT Cell Viability Assay in HepG2 cells - 32 hour (AID 1224877); also: potency is read from the fitted curve at half-maximal effect; nearly all actives have a fitted effect of over 55% in size
In short: as §1

[9] = A CellTox Green Cytotoxicity Assay to monitor cytotoxicity in HepG2 cells - 40 hour (AID 1224879); also: potency is read from the fitted curve at half-maximal effect; nearly all actives have a fitted effect of over 40% in size
In short: as §3

[10] = qHTS RealTime-Glo MT Cell Viability Assay in HepG2 cells - 8 hour (AID 1224873); also: potency is read from the fitted curve at half-maximal effect; nearly all actives have a fitted effect of over 55% in size
In short: (§4)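 Real-time viability: cells seeded at 600 per well together with NanoLuc and cell-permeant prosubstrate, compounds added after 5 h incubation. Luminescence tracked at 0, 8, 16, 24, 32 and 40 h of exposure.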

[11] = qHTS RealTime-Glo MT Cell Viability Assay in HEK293 cells - 40 hour (AID 1224874); conditions: RealTime-Glo luminescence; max response: stronger effect = lower value; also: potency is read from the fitted curve at half-maximal effect; nearly all actives have a fitted effect of over 50% in size
In short: (§5)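 Luminescence, which tracks viable cell number through reduction of the prosubstrate to a NanoLuc substrate, was read over continuous 37 C culture. Cells (600/well) were premixed with reagent and rested 5 h before 23 nL of compound in DMSO was pinned.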

[12] = A CellTox Green Cytotoxicity Assay to monitor cytotoxicity in HEK293 cells - 24 hour (AID 1224875); also: potency is read from the fitted curve at half-maximal effect; nearly all actives have a fitted effect of over 45% in size
In short: as §2

[13] = A CellTox Green Cytotoxicity Assay to monitor cytotoxicity in HepG2 cells - 24 hour (AID 1224878); also: potency is read from the fitted curve at half-maximal effect; nearly all actives have a fitted effect of over 45% in size
In short: as §3

[14] = qHTS assay to identify small molecule agonists of the estrogen related receptor (ERR) signaling pathway from Tox21 library (AID 1224849; calls by dose curve; also: % is scaled to controls: 0 for no effect and ±100 for the full control effect; nearly all actives have a fitted effect of over 15% in size); conditions: ERR reporter cell line, ONE-Glo luciferase, 18 h; at 92.4 µM (top of the series)
In short: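 Luminescent agonist read-out (One-Glo, 30-minute room-temperature incubation) following 18-hour compound treatment at 37 C of the ERR cell line, which had been plated 6 hours before dosing.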

[15] = qHTS RealTime-Glo MT Cell Viability Assay in HepG2 cells - 40 hour (AID 1224870); also: % is scaled to controls: 0 for no effect and ±100 for the full control effect; nearly all actives have a fitted effect of over 50% in size
In short: as §4

[16] = qHTS RealTime-Glo MT Cell Viability Assay in HEK293 cells - 0 hour (AID 1224880)
In short: as §5
Tags tell the direction and shape of the fitted curve or compound fluorescence and quenching.

Row | SMILES | Potency [1] | Potency [2] | Potency [3] | Potency [4] | Potency [5] | Potency [6] | Potency [7] | Potency [8] | Potency [9] | Potency [10] | Potency [11] | Potency [12] | Potency [13] | activity change, positive = activation [14] | Potency [15] | Potency [16]
1 | OC1(c2ccc(Cl)c(C(F)(F)F)c2)CCN(CCCC(c2ccc(F)cc2)c2ccc(F)cc2)CC1 | inconclusive: 22 µM [activator, single point] | inconclusive: 7.56 µM [falling, full curve] | active: 55.2 µM | active: 9.52 µM | active: 9.52 µM | active: 21.3 µM | active: 10.7 µM | active: 8.49 µM | active: 6.74 µM | – | – | – | – | – | – | –
2 | CC(C)(C)CC(C)(C)c1ccc(O)c(Cc2ccc(Cl)cc2Cl)c1 | active: 19.6 µM | inconclusive: 8.49 µM [falling, full curve] | active: 15.6 µM | inconclusive: 23.9 µM [falling, single point] | active: 21.3 µM | active: 23.9 µM | inconclusive: 26.8 µM [activator, single point] | – | inconclusive: 26.8 µM [activator, single point] | inconclusive: 26.8 µM [falling, single point] | active: 23.9 µM | active: 26.8 µM | inconclusive: 26.8 µM [activator, single point] | – | – | –
3 | O=Nc1ccc(NO)cc1 | inconclusive: 58.9 µM [falling, partial curve] | inconclusive: 45.4 µM [falling, partial curve] | inactive | – | inconclusive: 22.8 µM [rising, partial curve, poor fit] | – | – | – | – | – | inconclusive: 25.5 µM [rising, partial curve] | – | – | inconclusive: 20.6% | inactive | –
4 | N#CSCSc1nc2ccccc2s1 | inconclusive: 17.9 µM [activator] | inconclusive: 13.8 µM [falling, full curve] | inconclusive: 127 µM [cytotoxic, single point] | active: 38.9 µM | – | active: 11 µM | – | – | – | – | active: 19.5 µM | active: 11 µM | – | – | – | inactive
